# Laboratory results as given in the supplement of paper PMC10037445.
# The full ranking holds about 2,900 compounds; the median of “IRF Lucia reporter activity, fold change vs agonist alone” is about 0.9, and the highest 2% start at about 2.8. This is one part of the list.
# How the values were obtained:
# [1] = test system: RAW-Dual; test: IRF Lucia reporter activity, fold change vs agonist alone; higher = enhanced IRF activity; details: agonist: MPLA (TLR4) […]
# How it was run: (§1)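 Reporter activity is given as fold change relative to agonist-alone wells. To measure it, 50 nL of library stock was pin-tooled onto RAW-Dual macrophages (50,000 cells/well, DMEM, 384-well plates), a PRR agonist followed 1 h later, and cells stayed at 37 °C, 5% CO2. Twenty hours on, supernatant was assayed for IRF (QuantiLuc luminescence) and NF-κB (QuantiBlue, 620 nm absorbance), and wells under 70% of agonist-control IncuCyte confluency in both mask sets were marked cytotoxic.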
# [2] = test system: RAW-Dual; test: IRF Lucia reporter activity, fold change vs agonist alone; cytotoxicity flag (confluency mask): not cytotoxic; higher = enhanced IRF activity
# How it was run: as §1
# [3] = test system: RAW-Dual; test: IRF Lucia reporter activity, fold change vs agonist alone; cytotoxicity flag (confluency mask): cytotoxic (confluency <70% of control); higher = enhanced IRF activity
# How it was run: as §1
# [4] = library stock concentration (final ~1000-fold dilution): 10 mM, cytotoxicity flag (confluency mask): not cytotoxic
# [5] = agonist: 3'3'-cGAMP (STING) 10 ug/mL
# [6] = library stock concentration (final ~1000-fold dilution): 2 mM, cytotoxicity flag (confluency mask): not cytotoxic
# [7] = library stock concentration (final ~1000-fold dilution): 10 mM, cytotoxicity flag (confluency mask): cytotoxic (confluency <70% of control)
structure (smiles),measurement,setting,value
CC1CCC(C(=O)N(c2cc(C#CC(C)(C)C)sc2C(=O)O)C2CCC(O)CC2)CC1 (stereo unspecified),IRF Lucia reporter activity,[1]; [4],0.669
CC1CCC(C(=O)N(c2cc(C#CC(C)(C)C)sc2C(=O)O)C2CCC(O)CC2)CC1 (stereo unspecified) (library stock concentration (final ~1000-fold dilution): 10 mM),IRF Lucia reporter activity,[2]; [5],1.05
same,IRF Lucia reporter activity,[2]; agonist: LPS (TLR4) 0.1 ug/mL,0.708
CN(C)C1CCN(C(=O)c2ccc(NC(=O)Nc3ccc(-c4nc(N5CCOCC5)nc(N5CCOCC5)n4)cc3)cc2)CC1,IRF Lucia reporter activity,[1]; [6],1.52
CN(C)C1CCN(C(=O)c2ccc(NC(=O)Nc3ccc(-c4nc(N5CCOCC5)nc(N5CCOCC5)n4)cc3)cc2)CC1 (library stock concentration (final ~1000-fold dilution): 2 mM),IRF Lucia reporter activity,[2]; [5],0.426
same,IRF Lucia reporter activity,[2]; agonist: LPS (TLR4) 0.1 ug/mL,1.05
Cc1ccc(Nc2cc(NC3CCCCC3N)nnc2C(N)=O)nc1C (stereo unspecified) (library stock concentration (final ~1000-fold dilution): 10 mM),IRF Lucia reporter activity,[2]; [5],0.0902
same,IRF Lucia reporter activity,[2]; agonist: LPS (TLR4) 0.1 ug/mL,0.547
Cc1ccc(Nc2cc(NC3CCCCC3N)nnc2C(N)=O)nc1C (stereo unspecified),IRF Lucia reporter activity,[1]; [4],0.641
CCOC(=O)c1ccc(N)cc1.Cl (library stock concentration (final ~1000-fold dilution): 10 mM),IRF Lucia reporter activity,[2]; [5],0.942
same,IRF Lucia reporter activity,[2]; agonist: LPS (TLR4) 0.1 ug/mL,1.15
CCOC(=O)c1ccc(N)cc1.Cl,IRF Lucia reporter activity,[1]; [4],1.01
CC(C)[N+]1(C)C2CCC1CC(OC(=O)C(CO)c1ccccc1)C2 (stereo unspecified) (library stock concentration (final ~1000-fold dilution): 10 mM),IRF Lucia reporter activity,[2]; [5],1.06
same,IRF Lucia reporter activity,[2]; agonist: LPS (TLR4) 0.1 ug/mL,0.99
CC(C)[N+]1(C)C2CCC1CC(OC(=O)C(CO)c1ccccc1)C2 (stereo unspecified),IRF Lucia reporter activity,[1]; [4],0.98
Cc1nc2n(c(=O)c1CCN1CCC(c3noc4cc(F)ccc34)CC1)CCCC2,IRF Lucia reporter activity,[1]; [6],1.21
Cc1nc2n(c(=O)c1CCN1CCC(c3noc4cc(F)ccc34)CC1)CCCC2 (library stock concentration (final ~1000-fold dilution): 2 mM),IRF Lucia reporter activity,[2]; [5],1.02
same,IRF Lucia reporter activity,[2]; agonist: LPS (TLR4) 0.1 ug/mL,0.978
COc1cc2c(cc1O)CCC1C2CCC2(C)C(O)CCC12 (stereo unspecified),IRF Lucia reporter activity,[1]; [7],1.31
COc1cc2c(cc1O)CCC1C2CCC2(C)C(O)CCC12 (stereo unspecified) (library stock concentration (final ~1000-fold dilution): 10 mM),IRF Lucia reporter activity,[3]; [5],0.205
same,IRF Lucia reporter activity,[3]; agonist: LPS (TLR4) 0.1 ug/mL,1.03
COc1ccc(Cn2c3ncnc4c(ncn4Cc4ccc(OC)cc4)c-3nc2=O)cc1 (library stock concentration (final ~1000-fold dilution): 10 mM),IRF Lucia reporter activity,[2]; [5],0.58
same,IRF Lucia reporter activity,[2]; agonist: LPS (TLR4) 0.1 ug/mL,1.83
CCCC(NC(=O)/C(C#N)=C/c1cccc(Br)n1)c1ccccc1 (stereo unspecified) (library stock concentration (final ~1000-fold dilution): 10 mM),IRF Lucia reporter activity,[2]; [5],0.988
same,IRF Lucia reporter activity,[2]; agonist: LPS (TLR4) 0.1 ug/mL,0.0105
CCCC(NC(=O)/C(C#N)=C/c1cccc(Br)n1)c1ccccc1 (stereo unspecified),IRF Lucia reporter activity,[1]; [4],1.07
CCN1CC(CCN2CCOCC2)C(c2ccccc2)(c2ccccc2)C1=O (stereo unspecified) (library stock concentration (final ~1000-fold dilution): 10 mM),IRF Lucia reporter activity,[2]; [5],1
same,IRF Lucia reporter activity,[2]; agonist: LPS (TLR4) 0.1 ug/mL,1.36
CCN1CC(CCN2CCOCC2)C(c2ccccc2)(c2ccccc2)C1=O (stereo unspecified),IRF Lucia reporter activity,[1]; [4],1.09
CCCC1CC(C(=O)NC(C(C)Cl)C2OC(SC)C(O)C(O)C2O)N(C)C1.Cl (stereo unspecified) (library stock concentration (final ~1000-fold dilution): 10 mM),IRF Lucia reporter activity,[2]; [5],0.994
same,IRF Lucia reporter activity,[2]; agonist: LPS (TLR4) 0.1 ug/mL,1.13
CCCC1CC(C(=O)NC(C(C)Cl)C2OC(SC)C(O)C(O)C2O)N(C)C1.Cl (stereo unspecified),IRF Lucia reporter activity,[1]; [4],1.06
COc1cc(NS(C)(=O)=O)ccc1Nc1c2ccccc2nc2ccccc12.Cl,IRF Lucia reporter activity,[1]; [7],1.76
COc1cc(NS(C)(=O)=O)ccc1Nc1c2ccccc2nc2ccccc12.Cl (library stock concentration (final ~1000-fold dilution): 10 mM),IRF Lucia reporter activity,[3]; [5],0.225
same,IRF Lucia reporter activity,[3]; agonist: LPS (TLR4) 0.1 ug/mL,1.76
Cc1cnc(CNC(=O)c2c(=O)c3ccc(N4CCCN(C)CC4)nc3n3c2sc2ccccc23)cn1,IRF Lucia reporter activity,[1]; [6],1.61
Cc1cnc(CNC(=O)c2c(=O)c3ccc(N4CCCN(C)CC4)nc3n3c2sc2ccccc23)cn1 (library stock concentration (final ~1000-fold dilution): 2 mM),IRF Lucia reporter activity,[2]; [5],1.1
same,IRF Lucia reporter activity,[2]; agonist: LPS (TLR4) 0.1 ug/mL,1.76
O=C1/C(=C/c2ccncc2)CCC/C1=C\c1ccncc1 (library stock concentration (final ~1000-fold dilution): 10 mM),IRF Lucia reporter activity,[3]; [5],0.114
same,IRF Lucia reporter activity,[3]; agonist: LPS (TLR4) 0.1 ug/mL,0.0895
O=C1/C(=C/c2ccncc2)CCC/C1=C\c1ccncc1,IRF Lucia reporter activity,[1]; [7],0.321
